The target in experiment [1] is T1, endogenous ZEB1 (SMMC-7721 cells) (human (endogenous in SMMC-7721)) (UniProt P37275).
T1 sequence: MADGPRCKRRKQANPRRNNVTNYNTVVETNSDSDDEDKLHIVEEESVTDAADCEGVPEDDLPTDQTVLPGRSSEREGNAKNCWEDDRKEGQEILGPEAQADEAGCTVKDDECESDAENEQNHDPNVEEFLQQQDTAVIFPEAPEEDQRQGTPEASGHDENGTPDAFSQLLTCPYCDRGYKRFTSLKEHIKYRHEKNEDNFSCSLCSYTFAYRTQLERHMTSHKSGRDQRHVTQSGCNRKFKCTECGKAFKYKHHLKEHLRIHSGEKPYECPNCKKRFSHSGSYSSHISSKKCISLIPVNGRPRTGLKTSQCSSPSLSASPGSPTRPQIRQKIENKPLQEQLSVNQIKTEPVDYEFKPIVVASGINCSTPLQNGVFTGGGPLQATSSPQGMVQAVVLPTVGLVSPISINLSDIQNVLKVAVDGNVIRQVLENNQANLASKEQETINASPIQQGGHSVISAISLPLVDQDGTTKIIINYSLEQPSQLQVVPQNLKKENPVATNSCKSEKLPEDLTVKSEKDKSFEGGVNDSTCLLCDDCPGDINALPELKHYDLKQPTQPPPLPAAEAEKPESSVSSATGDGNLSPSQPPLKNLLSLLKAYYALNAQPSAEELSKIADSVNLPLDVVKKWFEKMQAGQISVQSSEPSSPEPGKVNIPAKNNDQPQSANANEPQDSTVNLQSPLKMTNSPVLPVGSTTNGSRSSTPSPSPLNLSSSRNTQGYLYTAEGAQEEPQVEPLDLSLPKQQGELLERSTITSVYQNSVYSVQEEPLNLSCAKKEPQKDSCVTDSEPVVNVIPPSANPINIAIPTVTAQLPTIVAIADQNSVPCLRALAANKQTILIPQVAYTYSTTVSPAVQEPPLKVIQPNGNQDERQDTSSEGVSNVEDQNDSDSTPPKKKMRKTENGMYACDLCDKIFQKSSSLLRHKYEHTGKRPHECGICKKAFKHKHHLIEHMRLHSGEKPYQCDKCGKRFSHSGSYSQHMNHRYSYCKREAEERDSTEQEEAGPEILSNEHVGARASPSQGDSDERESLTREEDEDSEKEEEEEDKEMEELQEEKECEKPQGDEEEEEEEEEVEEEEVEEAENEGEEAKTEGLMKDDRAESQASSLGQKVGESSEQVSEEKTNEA
In words: co-IP; endogenous proteins of SMMC-7721 cells, 10 μM MG132 for 6 h; RIPA buffer; anti-ZEB1 or anti-DCAF15 antibody or IgG (mock IP), protein A/G beads; Western blot.

Chains of the proteins cited; added tags and fusions are not shown.
UniProt Q66K64: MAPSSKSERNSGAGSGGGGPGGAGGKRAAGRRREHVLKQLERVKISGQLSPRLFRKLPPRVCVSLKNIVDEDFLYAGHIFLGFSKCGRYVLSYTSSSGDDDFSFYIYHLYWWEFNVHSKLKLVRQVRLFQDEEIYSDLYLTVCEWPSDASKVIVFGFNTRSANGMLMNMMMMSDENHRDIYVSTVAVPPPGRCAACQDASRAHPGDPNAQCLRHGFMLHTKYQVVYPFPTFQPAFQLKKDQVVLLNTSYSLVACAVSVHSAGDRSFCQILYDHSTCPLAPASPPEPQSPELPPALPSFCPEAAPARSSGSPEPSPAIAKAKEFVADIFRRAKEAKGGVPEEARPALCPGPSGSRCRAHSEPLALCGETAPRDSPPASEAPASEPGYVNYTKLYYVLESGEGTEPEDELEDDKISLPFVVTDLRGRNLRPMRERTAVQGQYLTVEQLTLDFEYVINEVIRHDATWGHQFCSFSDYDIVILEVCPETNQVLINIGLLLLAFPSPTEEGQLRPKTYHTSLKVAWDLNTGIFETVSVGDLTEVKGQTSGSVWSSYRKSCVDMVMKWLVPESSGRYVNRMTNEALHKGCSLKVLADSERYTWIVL
UniProt Q13619: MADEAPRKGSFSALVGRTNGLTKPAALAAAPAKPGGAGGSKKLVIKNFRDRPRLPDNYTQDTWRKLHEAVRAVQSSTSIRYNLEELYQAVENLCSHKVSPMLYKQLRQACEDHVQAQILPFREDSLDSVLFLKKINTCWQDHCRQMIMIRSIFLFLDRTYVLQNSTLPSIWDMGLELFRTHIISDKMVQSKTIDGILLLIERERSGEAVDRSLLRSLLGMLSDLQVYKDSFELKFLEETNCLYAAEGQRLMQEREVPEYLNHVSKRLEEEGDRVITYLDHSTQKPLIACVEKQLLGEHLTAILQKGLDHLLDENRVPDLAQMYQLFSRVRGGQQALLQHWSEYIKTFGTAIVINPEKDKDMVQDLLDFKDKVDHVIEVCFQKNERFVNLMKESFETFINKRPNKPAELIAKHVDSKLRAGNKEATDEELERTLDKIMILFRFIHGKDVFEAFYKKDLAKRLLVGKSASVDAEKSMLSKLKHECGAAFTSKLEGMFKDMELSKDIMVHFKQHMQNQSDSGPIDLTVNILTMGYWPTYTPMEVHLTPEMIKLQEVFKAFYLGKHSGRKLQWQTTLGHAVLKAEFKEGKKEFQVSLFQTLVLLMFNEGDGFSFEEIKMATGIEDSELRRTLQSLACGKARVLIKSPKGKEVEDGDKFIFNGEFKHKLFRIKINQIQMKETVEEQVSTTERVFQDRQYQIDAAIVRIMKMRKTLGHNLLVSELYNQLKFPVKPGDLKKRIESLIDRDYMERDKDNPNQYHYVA
UniProt Q16531: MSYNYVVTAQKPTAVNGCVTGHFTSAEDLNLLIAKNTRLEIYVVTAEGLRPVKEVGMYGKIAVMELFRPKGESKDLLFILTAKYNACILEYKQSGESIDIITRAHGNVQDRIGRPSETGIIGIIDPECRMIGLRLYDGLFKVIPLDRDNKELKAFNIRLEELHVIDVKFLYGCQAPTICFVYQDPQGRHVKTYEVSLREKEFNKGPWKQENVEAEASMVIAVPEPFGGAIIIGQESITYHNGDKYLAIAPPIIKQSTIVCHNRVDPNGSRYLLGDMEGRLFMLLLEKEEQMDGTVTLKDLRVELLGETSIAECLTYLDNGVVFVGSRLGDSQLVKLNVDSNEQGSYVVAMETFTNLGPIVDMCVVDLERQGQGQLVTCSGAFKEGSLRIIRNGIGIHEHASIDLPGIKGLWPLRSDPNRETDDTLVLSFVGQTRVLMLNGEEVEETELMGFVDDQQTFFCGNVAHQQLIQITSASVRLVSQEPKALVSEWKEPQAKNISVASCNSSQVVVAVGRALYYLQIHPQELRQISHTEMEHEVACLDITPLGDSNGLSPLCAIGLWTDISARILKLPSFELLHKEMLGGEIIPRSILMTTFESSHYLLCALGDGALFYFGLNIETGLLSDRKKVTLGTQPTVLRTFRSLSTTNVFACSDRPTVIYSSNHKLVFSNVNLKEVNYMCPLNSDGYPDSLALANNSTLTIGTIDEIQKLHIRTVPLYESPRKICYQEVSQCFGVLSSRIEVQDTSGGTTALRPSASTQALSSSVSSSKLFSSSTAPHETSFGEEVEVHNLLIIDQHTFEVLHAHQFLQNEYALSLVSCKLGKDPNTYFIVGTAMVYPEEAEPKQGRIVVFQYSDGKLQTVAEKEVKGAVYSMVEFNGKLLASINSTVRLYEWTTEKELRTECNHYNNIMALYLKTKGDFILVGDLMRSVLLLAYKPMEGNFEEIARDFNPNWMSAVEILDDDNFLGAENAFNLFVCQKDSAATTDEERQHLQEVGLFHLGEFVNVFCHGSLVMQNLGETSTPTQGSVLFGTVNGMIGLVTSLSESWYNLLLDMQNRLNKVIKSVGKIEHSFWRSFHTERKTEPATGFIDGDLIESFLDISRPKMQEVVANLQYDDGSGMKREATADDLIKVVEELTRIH

For experiment [2], the target named is T2, Flag-ZEB1 (UniProt P37275).
T2 sequence: T1 sequence
In words: co-IP; Flag- and Myc-tagged proteins co-expressed in HEK293T cells; lysed in NP40 buffer; anti-Flag M2 agarose beads at 4°C overnight; eluted with Flag peptide/BC100; Western blot. On the technique in general: A western blot detects proteins with antibodies after separation by electrophoresis.

The target in experiment [3] is endogenous DCAF15 (human (endogenous in SMMC-7721)) (UniProt Q66K64). In words: co-IP; endogenous proteins of SMMC-7721 cells, 10 μM MG132 for 6 h; RIPA buffer; anti-ZEB1 or anti-DCAF15 antibody or IgG (mock IP), protein A/G beads; Western blot.
Experiment [4] deals with T3, Flag-CUL4B (human), Q13620.
T3 chain: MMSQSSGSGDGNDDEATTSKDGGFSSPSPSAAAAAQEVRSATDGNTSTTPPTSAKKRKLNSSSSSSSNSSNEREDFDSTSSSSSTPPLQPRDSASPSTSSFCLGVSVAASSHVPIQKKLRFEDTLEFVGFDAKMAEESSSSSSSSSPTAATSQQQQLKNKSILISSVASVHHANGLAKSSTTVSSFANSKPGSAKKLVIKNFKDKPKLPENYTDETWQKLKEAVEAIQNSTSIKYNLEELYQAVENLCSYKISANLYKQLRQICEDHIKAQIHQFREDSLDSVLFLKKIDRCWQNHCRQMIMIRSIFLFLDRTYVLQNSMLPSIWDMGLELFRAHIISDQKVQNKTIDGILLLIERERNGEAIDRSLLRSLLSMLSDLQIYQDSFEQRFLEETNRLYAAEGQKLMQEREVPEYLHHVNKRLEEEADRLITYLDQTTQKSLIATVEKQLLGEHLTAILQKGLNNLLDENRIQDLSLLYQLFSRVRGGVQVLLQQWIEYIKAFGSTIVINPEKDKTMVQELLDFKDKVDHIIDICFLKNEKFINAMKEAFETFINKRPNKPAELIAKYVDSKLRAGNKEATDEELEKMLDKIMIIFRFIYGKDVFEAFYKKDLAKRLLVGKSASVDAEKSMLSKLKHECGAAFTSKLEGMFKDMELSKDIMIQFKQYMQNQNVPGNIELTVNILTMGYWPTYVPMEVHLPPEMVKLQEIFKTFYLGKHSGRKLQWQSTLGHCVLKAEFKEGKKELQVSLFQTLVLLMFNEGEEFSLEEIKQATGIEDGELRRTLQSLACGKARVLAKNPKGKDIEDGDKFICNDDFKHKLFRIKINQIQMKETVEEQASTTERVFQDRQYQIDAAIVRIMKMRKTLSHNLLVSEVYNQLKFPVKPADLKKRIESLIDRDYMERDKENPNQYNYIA
The experiment can be described thus: co-IP; Flag-tagged protein expressed in HEK293T cells, 10 μM MG132 for 6 h; anti-Flag M2 agarose beads; blot for endogenous ZEB1. To be noted: remark: other sources report otherwise.

In experiment [5] the target is Flag-CUL4A (human) (UniProt Q13619). The description is as above.
For experiment [6], the target named is Flag-DDB1 (UniProt Q16531). Described as above.

Results are given in words; binding and its absence hold for the method and conditions named. In cells and extracts the contact can be indirect. Some binding calls cover weakened binding; strength is not graded here. For part of these data: Tags and fused reporters may be left off the sequences shown.

Regarding “endogenous DCAF15 (from UniProt Q66K64 1-600)”, in experiment [1], the binding entry is recorded as “binds”.

For Myc-DCAF15 (from UniProt Q66K64 1-600), the binding result in experiment [2] is recorded as “binds”.

B1: endogenous ZEB1 (SMMC-7721 cells) (protein, UniProt P37275 1-1124)
chain: T1 sequence
Turning to B1, the binding result in experiment [3] is given as “binds”.

B2: endogenous ZEB1 (HEK293T cells), P37275 1-1124 (protein)
chain: T1 sequence
For the molecule B2, the binding result in experiment [4] is recorded as “no binding”.

B3: endogenous ZEB1 (HEK293T cells) (protein, UniProt P37275 1-1124)
chain: T1 sequence
Take B3: the binding result in experiment [5] and in experiment [6] was “no binding” each time.

For the origin of these results see paper PMC8064142.
